This is an account of results in ChEMBL document CHEMBL4888484, “Replenishing the malaria drug discovery pipeline: Screening and hit evaluation of the MMV Hit Generation Library 1 (HGL1) against asexual blood stage Plasmodium falciparum ,using a nano luciferase reporter read-out” (2022).

The campaign covered roughly 150,000 compounds. About 540 (0.36%) showed an effect of 50% or more. Some of the results follow.

The assay concerns Plasmodium falciparum. The assay can be described thus: Primary screen in NF54 nanoGlo assay, in single point, at 2uM, 72h; a lower Z score goes with more inhibition. The format is functional, Erythrocyte. Conditions: timepoint 72 hour.
The % Inhibition is the change of the read-out against control, counted positive when it falls. For `CN(C)CCC1CCN(C(=O)N[C@H]2CCCC2(C)C)CC1`, the “% Inhibition” value is recorded as -5% and the Z score came to 0.76.

Turning to `C[C@H]1CN(C)CCN1CC(=O)N1CCC(c2ccccc2)=N1`, the “% Inhibition” value is on record as 2% and the Z score is given as -0.15.

On to `Cn1cccc1C(=O)N(CC1CCC1)CC(F)(F)F`, for which the “% Inhibition” value is given as -7% and the Z score turned out to be 0.97.

Consider `CCc1onc(C)c1NC(=O)NC[C@H]1CCC[C@@H]1O`, for which the “% Inhibition” value is recorded as -17% and the Z score stood at 2.64.

Turning to `O=C(NCc1ccc(F)cc1)[C@@H]1COCC(=O)N1Cc1ccc(F)cc1`, the “% Inhibition” value was -3% and the Z score is 0.54.

In the case of `Cc1ccsc1CNc1ccccc1C(=O)NCc1ncc[nH]1`, the “% Inhibition” value is given as 2% and the Z score is listed as -0.38.

Turning to `CC1(C)CN(Cc2c(Cl)cncc2Cl)CC[C@]1(C)O`, the “% Inhibition” value is -3% and the Z score worked out at 0.33.

For the compound `CC(C)NC(=O)NCCN1CCc2[nH]ncc2C1`, the “% Inhibition” value is recorded as 10% and the Z score was -1.15.

For `O=S(=O)(Nc1ccc2nc(N3CCCC3)sc2c1)c1ccccc1Br`, the “% Inhibition” value is given as -7% and the Z score is given as 1.18.

On to `O=C(Nc1ccc(-n2cncn2)nc1)c1cc(Cl)ccc1F`, for which the “% Inhibition” value is -22% and the Z score stood at 1.97.

For `Cn1ccnc1CN1CC[C@@](C)(O)[C@@H](NC(=O)C2CCCC2)[C@@H]1c1cccs1`, the “% Inhibition” value is -6% and the Z score is on record as 0.94.

Turning to `Cc1cccc([C@H]2C[C@@H]2C(=O)Nc2cc(C(=O)O)[nH]n2)c1`, the “% Inhibition” value was -15% and the Z score is listed as 2.96.

For `COCCCNC(=O)C(=O)NCc1cccnc1`, the “% Inhibition” value came to 2% and the Z score was -0.26.

Take `CC1(CNC(=O)Nc2ncc(Cc3ccccc3)s2)OCCCO1`: the “% Inhibition” value is -21% and the Z score is on record as 1.89.

For `c1ccc(CN2CCN(c3cc4c(nn3)CCC4)CC2)cc1`, the “% Inhibition” value was -10% and the Z score was 1.96.

Regarding `Cc1nn(C)c(C)c1NC(=O)N(C)Cc1ccsc1`, the “% Inhibition” value came to 15% and the Z score is given as -1.91.

On to `CC1CC(CCNC(=O)N2C[C@@H](F)[C@@H](F)C2)CCO1` (stereo not given in full), for which the “% Inhibition” value is -5% and the Z score is 0.61.

Take `CC1CN(C(=O)N[C@H]2C[C@H](c3cccc(C(F)(F)F)c3)C2)CC2(CCOC2)O1` (stereo not given in full): the “% Inhibition” value is given as -6% and the Z score is recorded as 0.61.

For the compound `Clc1ccccc1COc1ccc(CNC2CC2)cc1`, the “% Inhibition” value was -7% and the Z score amounted to 1.33.

Regarding `Cc1c(CC(=O)N2CCC[C@H]2CO)c2c(n1Cc1ccc(F)cc1)CCCC2=O`, the “% Inhibition” value was -1% and the Z score is 0.23.

In the case of `O=C(Nc1ccc(Br)cc1)c1cccnc1-n1cc(-c2ccncc2)cn1`, the “% Inhibition” value came out at 8% and the Z score is listed as -1.

For `CN(Cc1ccccc1N1CCOCC1)c1ncc(F)cn1`, the “% Inhibition” value was 4% and the Z score is listed as -0.67.

As for `CCCC(=O)Oc1ccccc1N(C(=O)CCC)S(=O)(=O)c1ccc2ccccc2c1`, the “% Inhibition” value is -3% and the Z score was determined as 0.61.

`O=C(NCc1cn(-c2cccs2)nn1)c1ccc(Cl)s1`: the “% Inhibition” value stood at 12% and the Z score was -1.56.

As to `CC1CN(C(=O)[C@@H]2CCCO[C@H]2c2ccnn2C(C)C)c2cccnc2O1` (stereo not given in full), the “% Inhibition” value is recorded as -1% and the Z score is given as 0.2.

Consider `CC1(C)OCCC1CNC(=O)NC1CC1(C)c1ccc(F)c(F)c1` (stereo not given), for which the “% Inhibition” value is -4% and the Z score is reported as 0.86.

Consider `Cc1cccc(NC(=O)CC2=Nc3ccccc3S(=O)(=O)N2)c1C`, for which the “% Inhibition” value was -2% and the Z score came out at 0.27.

With `Cc1cc(CN(C)Cc2cn3c(C)cccc3n2)n[nH]1`, the “% Inhibition” value is -11% and the Z score is reported as 1.49.

For the compound `C=CCS(=O)(=O)N1CC[C@H](C2CCN(c3ncccn3)CC2)C1`, the “% Inhibition” value is recorded as -19% and the Z score was 2.01.

For the compound `COc1ccc(N)cc1N1CCCN(Cc2ccc(C(C)C)cc2)C1=O`, the “% Inhibition” value is listed as -5% and the Z score worked out at 0.77.

In the case of `CCc1nc(-c2cc(NC(=O)c3ccc(Cl)cc3)c(C)s2)no1`, the “% Inhibition” value is recorded as -1% and the Z score worked out at 0.07.

Consider `N#CCNC(=O)CNc1ccc(C(F)(F)F)c(Br)c1`, for which the “% Inhibition” value is reported as -5% and the Z score is on record as 0.96.

On to `CCCCN(CCO)C(=O)Nc1cc(Cl)ccc1C`, for which the “% Inhibition” value is given as -8% and the Z score is listed as 0.87.

As for `N#Cc1ccc(NC(=O)N2CCC(F)(F)CC2)cn1`, the “% Inhibition” value is reported as 4% and the Z score is reported as -0.71.

Regarding `Cc1cc(C)cc(NC(=O)CCNC(=O)c2cnccn2)c1`, the “% Inhibition” value came out at 34% and the Z score is on record as -3.82.

Turning to `COc1ccc(C(=O)N(Cc2cc(NC(=O)C3CCCC3)ccc2N(C)C)CC(C)C)cc1`, the “% Inhibition” value was -14% and the Z score turned out to be 1.99.

With `O=C(NCc1nnc2n1CCOCC2)c1cc(F)ccc1Cl`, the “% Inhibition” value is -7% and the Z score is recorded as 0.69.

With `CS(=O)(=O)CC1(CC(=O)NC2CC2c2cc(F)ccc2F)CC1` (stereo not given), the “% Inhibition” value is given as -2% and the Z score was determined as 0.25.

Regarding `COc1ccc(NC(=O)c2c(C)nn(C)c2C)cn1`, the “% Inhibition” value is -14% and the Z score is on record as 1.96.

For the compound `CCOC1CC(CC(=O)Nc2cccc([C@@H](F)C(F)(F)F)c2)C1` (stereo not given in full), the “% Inhibition” value is on record as -19% and the Z score stood at 2.39.

With `CN1CC[C@@H]2CN(C(=O)NCCc3ccccc3)C[C@@H]21`, the “% Inhibition” value is given as -8% and the Z score worked out at 1.1.

With `Cc1ccc(-c2nn(CC(=O)Nc3ccc(F)cc3)c3c2cnc2ccccc23)cc1`, the “% Inhibition” value is -7% and the Z score worked out at 1.17.

As for `Cc1cnc2c(Cl)c(C(=O)N(C)C[C@H](C)N3CCOCC3)nn2c1`, the “% Inhibition” value is listed as -5% and the Z score was determined as 0.72.

For the compound `CN(C)CCn1c(=O)[nH]c2ccc(C(=O)NCCc3ccco3)cc21`, the “% Inhibition” value was -2% and the Z score came out at 0.3.

For `COc1cc2ccccc2cc1C(=O)Nc1nnn(C)n1`, the “% Inhibition” value worked out at 27% and the Z score is given as -3.7.

For `c1ccc(Cc2nc(CNc3ncccn3)no2)cc1`, the “% Inhibition” value is -11% and the Z score is reported as 1.6.

For the compound `CCc1ccc(-c2cc(C(=O)Nc3ccc4nc(NS(C)(=O)=O)sc4c3)[nH]n2)cc1`, the “% Inhibition” value was -13% and the Z score is listed as 1.27.

Regarding `CCOc1cccc(CNC(=O)c2cn3c(n2)C(=O)N[C@H](c2ccc(OC)cc2)C3)c1`, the “% Inhibition” value was -7% and the Z score is reported as 1.26.

For the compound `CCN1C[C@H](CN(C)C(=O)NC2CCCC2)Oc2ccccc21`, the “% Inhibition” value was -6% and the Z score stood at 1.14.

As for `COCCN1CCC2(CC1)OCc1ccccc12`, the “% Inhibition” value was -4% and the Z score turned out to be 0.63.

As for `CCS(=O)(=O)CCN1C(=O)CN(Cc2ccc(C(F)(F)F)cc2)C1=O`, the “% Inhibition” value is -12% and the Z score is on record as 1.46.

Take `c1ccc2oc(CN3CCC4(CC3)OCCO4)nc2c1`: the “% Inhibition” value is 3% and the Z score is listed as -0.39.

With `Cc1noc(C)c1C(=O)N[C@@H]1[C@H]2CCO[C@H]2[C@H]1Cc1ccccc1`, the “% Inhibition” value was -13% and the Z score is recorded as 2.51.

Turning to `CCc1ccc([C@H]2CC(=O)Nc3n[nH]cc32)nc1`, the “% Inhibition” value came to 2% and the Z score is recorded as -0.21.

For the compound `CC[C@@H](C(=O)N1CCOCC2(CCC2)C1)c1ccccc1`, the “% Inhibition” value was determined as 5% and the Z score is listed as -0.99.
